Screen size: about 310,000 compounds; about 11,000 (3.5%) were called active. This list was built around the results that the source calls inconclusive (neither active nor inactive); the mix of calls is not that of the screen. Calls follow the shape of the dose curve; as a rule, active = well fitted inhibition curve with a large enough effect; inconclusive = small, poorly fitted or top-dose-only effect, or effect the other way; inactive = flat fitted curve, though single readings scatter. No potency is given beside an inconclusive call; the fits are too rough.
Assay: VP16 counterscreen qHTS for inhibitors of ROR gamma transcriptional activity;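 also: Gal4-VP16 expression switched on by copper sulfate through the metallothionein promoter; nearly all actives have a fitted effect of over 50% in size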
Settings: Drosophila S2 Gal4-VP16 UAS-luciferase, luminescence, 20 h; activity, negative = inhibition: at 53.6 µM (top of the series)
% is scaled to controls: 0 for no effect and ±100 for the full control effect; potency is read from the fitted curve at half-maximal effect; tags tell the direction and shape of the fitted curve.

SMILES	Potency	activity, negative = inhibition
Cc1oc(C(C)(C)C)cc1C(=O)NCc1ccc2c(c1)OCO2	inconclusive [inhibitor, single point]	–
COc1ccc(CNC(=O)Cc2csc(Nc3nc(=S)[nH]c4ccccc34)n2)cc1	active: 12.6 µM	–
O=C(ONC1=NCCCCC1)c1ccc(Cl)cc1	inconclusive [inhibitor, single point]	–
COc1ccc(NC(=O)c2ccccc2[N+](=O)[O-])cc1	–	inactive: 3.64%
Cc1nc(NC(=O)CC(C)C)sc1-c1csc(Nc2ccc(Cl)cc2)n1	inconclusive [inhibitor, single point]	–
CC(=O)C1=C(C)NC(SCC(=O)c2ccc(Cl)cc2Cl)=C(C#N)C1c1ccco1 (centres undefined)	active: 4.47 µM	–
O=C(N/N=C/c1ccc[nH]1)c1ccc(O)cc1	inconclusive [inhibitor, partial curve, poor fit]	–
O=C(c1cc(-c2ccc(O)cc2)on1)N1CCc2ccccc2C1	inconclusive [inhibitor, partial curve]	–
Cc1ccnc(NC(=O)c2ccc(Cl)s2)c1	inconclusive [inhibitor, single point]	–
COC(=O)c1n[nH]c2ccccc12	–	inactive: -5.14%
O=C1c2ccccc2C(=O)c2[nH]cnc21	inconclusive [inhibitor, single point]	–
CC(C)C[C@@H](CSc1ccc(Br)cc1)N1CCN(CC(C)C)CCC1=O	–	inactive: 25.1%
Cc1ccc(N=C/C(C(=O)C(F)(F)F)=C(\O)c2ccco2)cc1Cl	inconclusive [inhibitor, single point]	–
O=C1C2CC=CCC2C(=O)N1c1ccc(N2CCN(c3ccccn3)CC2)c([N+](=O)[O-])c1 (centres undefined)	active: 4.47 µM	–
COc1ccccc1-n1cc(-c2ccc(Br)cc2)[nH]c1=S	active: 10 µM	–
FC(F)(F)c1nnc(-c2ccccc2)nc1Sc1ccc(Cl)cc1	inconclusive [inhibitor, single point]	–
Oc1ccc2c(c1)OCC1(O)Cc3cc(O)c(O)cc3C21 (centres undefined)	active: 5.62 µM	–
O=C(NCCn1cc(SCc2ccc(F)cc2)c2ccccc21)c1c(F)cccc1F	inconclusive [inhibitor, single point]	–
O=C(NNC(=O)C1C2CCC(C2)C1C(=O)O)c1ccc(Cl)cc1 (centres undefined)	inconclusive [activator, single point]	–
CC(OC(=O)CCCSc1nc2ccccc2s1)C(=O)NC(N)=O (centres undefined)	active: 3.98 µM	–
O=C(O)c1nc(-c2ccccc2)n(-c2ccccc2)n1	–	inactive: 1.91%
Cc1ccccc1NN=Nc1nc2c([nH]1)c(=O)n(C)c(=O)n2C	inconclusive [activator, single point]	–
Cc1ccc(S(=O)(=O)c2cnc3cc(C)nn3c2N)cc1	inconclusive [inhibitor, single point]	–
Cc1ccc(S(=O)(=O)N2CCCCC2)cc1C(=O)NCCc1ccccc1	inconclusive [inhibitor, single point]	–
C=CCNC(=S)Nc1c(C(=O)OC)[nH]c2cc(OC)ccc12	inconclusive [inhibitor, partial curve]	–

SMILES	Potency	activity, negative = inhibition
Cc1c(Cl)c(-c2n[nH]c(=S)n2CC(C)C)nn1C	inconclusive [inhibitor, single point]	–
Cc1ccsc1/C=N\NC(=O)c1n[nH]c2c1CCC2	active: 7.08 µM	–
Cc1nc2cnc(N3CCN(C)CC3)nc2n(C2CC2)c1=O	–	inactive: 8.21%
O=C(CSc1nc(N2CCOCC2)nc(N2CCOCC2)n1)Nc1ccccc1F	–	inactive: 16.5%
CCCCNC(=S)NC(=O)c1ccc([N+](=O)[O-])cc1	inconclusive [inhibitor, single point]	–
O=C(Cn1cccn1)N1CCCC(Nc2ccc(F)c(F)c2)C1 (centres undefined)	–	inactive: -15.3%
Cc1cccnc1NC(=O)COc1ccc2oc3c(c2c1)CCCC3	–	inactive: -11.1%
CCOc1ccc(Cl)cc1S(=O)(=O)NCc1ccccn1	inconclusive [activator, full curve, poor fit]	–
NNC(=O)c1cc(-c2ccc(O)cc2)nc2ccc(Br)cc12	inconclusive [inhibitor, single point]	–
Cc1ccc(S(=O)(=O)Nc2ccc3c(c2)n(C)c(=O)n3C)cc1	inconclusive [inhibitor, single point]	–
Cc1ccc(/C=C/C(=O)N2CCN(S(=O)(=O)c3c(C)c(C)cc(C)c3C)CC2)o1	inconclusive [inhibitor, single point]	–
C/C(=N/NC(=S)Nc1cccc(C)c1)c1cccc([N+](=O)[O-])c1	active: 10 µM	–
N#CC1=C(S)N(c2ccc(F)cc2)C(c2ccco2)NC1=O (centres undefined)	–	inactive: -10.9%
Cc1ccc(C(=O)Nc2ncc([N+](=O)[O-])s2)cc1	active: 2 µM	–
CC(=O)Nc1ccc(S(=O)(=O)Nc2ccc3c(c2)CCC3)cc1	inconclusive [inhibitor, partial curve]	–
CC(C)CC(=O)NC(=S)NCCc1ccccc1	active: 7.94 µM	–
COC(=O)/C(=C(O)\C=C\c1ccccc1[N+](=O)[O-])c1nc2ccccc2[nH]1	inconclusive [inhibitor, single point]	–
CC(C)OCCCNC(=O)c1ccc(Br)cc1	inconclusive [inhibitor, single point]	–
CC(=O)C(Sc1ccc2nnc(-c3ccc(C)cc3)n2n1)C(C)=O	inconclusive [inhibitor, single point]	–
CCCOc1cccc(C(=O)N/N=C/c2ccoc2)c1	inconclusive [inhibitor, single point]	–
COc1cccc(OCCCn2cc(/C=C3/C(=N)N4C=C(C)SC4=NC3=O)c3ccccc32)c1	active: 1.41 µM	–
COc1cc(/C=C(\C#N)c2nc3ccc(C)cc3[nH]2)c([N+](=O)[O-])cc1OC	–	inactive: -7.63%
Cc1cc(C)n(-c2nc(NCCCO)c3c4c(sc3n2)CCCC4)n1	active: 2.82 µM	–
Cc1cccc(C)c1NC(=O)N1CC=CCC1	inconclusive [inhibitor, full curve, poor fit]	–

— PubChem BioAssay AID2546 (National Center for Advancing Translational Sciences (NCATS), 2010)
